± gives the uncertainty stated by the source. Over roughly 9,900 compounds, “viability index relative to DMSO control” has its median near 1; the lowest 2% begin near 0.85. Some of the results follow.
Each compound was assayed on Plasmodium falciparum NF54 stage V gametocytes (assay: viability index relative to DMSO control (fraction); higher = less gametocyte killing). Conditions: 2.5 µM, library set: Broad Institute DOS, incubation time: 72 h.
In short: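 P. falciparum NF54 stage V gametocytes in serum-free screening medium (0.75% gametocytemia, 1.25% hematocrit, 10 µl) were incubated with compound at 2.5 µM in 1,536-well plates for 72 hr at 37°C under low oxygen. Then 3 µl of 2.5 µM MitoTracker Red CMXRos plus 0.13% saponin was added for one to two hours. One field per well was imaged, 20–70 µm2 red particles were counted, and the viability index was the count divided by the plate mean of DMSO wells.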
For `C/C=C/c1ccc([C@@H]2[C@@H](CO)N3C(=O)CN(C(=O)Nc4cccc(OC)c4)C[C@@H]23)cc1`, the viability index was 1.051 ± 0.008. `COc1cccc(CNC(=O)C[C@H]2CC[C@@H]3[C@H](COc4ccc(NC(=O)c5cccs5)cc4C(=O)N3C)O2)c1` gave a viability index of 0.935 ± 0.15. `COc1ccc(-c2ccccc2[C@H]2[C@@H](CO)N(C(=O)NC(C)C)[C@H]2C#N)cc1` gave a viability index of 1.13 ± 0.14. Work on `CN(C)C(=O)c1ccc(-c2ccc([C@@H]3[C@H]4CN(C(=O)CC5CC5)CC(=O)N4[C@H]3CO)cc2)cc1` yielded a viability index of 1.08 ± 0.018. Compound `COc1ccc(C#Cc2ccc3c(c2)[C@H]2[C@H](CCN2C(=O)Nc2ccc(C(F)(F)F)cc2)[C@H](CO)N3C)cc1` has a viability index of 1.1 ± 0.068. For `N#C[C@H]1[C@H](c2ccc(C3=CCCC3)cc2)[C@@H](CO)N1C(=O)c1ccccn1`, the viability index was 1.06 ± 0.052. Compound `CO[C@@H]1CC[C@H]2CCOc3c(C#N)cccc3C(=O)N(C)CC3(CCCCC3)CC(=O)N(C)C[C@H]1O2` has a viability index of 0.974 ± 0.043. `CC[C@H]1C/C=C\C[C@@H](c2ccc(OC)cc2OC)NC(=O)[C@@H](C)CC(=O)N1` showed a viability index of 0.956 ± 0.047. `CO[C@@H](CN(C)Cc1ccc2c(c1)OCO2)[C@H](C)CN(C(=O)c1ccccc1)[C@@H](C)CO` was tested, and the viability index was 1.02 ± 0.12. Work on `O=C(c1ccncc1)N1C[C@@H]2[C@H](c3ccccc31)[C@H](CO)N2Cc1ccccc1F` yielded a viability index of 1.055 ± 0.0046. With `C[C@H](CO)N1C[C@H](C)[C@@H](CN(C)C(=O)[C@H](Cc2ccccc2)N(C)C)OCc2ccccc2-c2ccccc2C1=O` the viability index was 1.05 ± 0.028. In the case of `COC(=O)c1ccc(CN2CC(=O)N3[C@H](CO)[C@H](c4ccc(-c5cccnc5)cc4)[C@@H]3C2)cc1`, the viability index is reported as 1.05 ± 0.043. For `C[C@@H](NC(=O)C[C@H]1C=C[C@H](NS(=O)(=O)c2cccc(F)c2)[C@H](CO)O1)c1ccccc1`, the viability index was 1.12 ± 0.098. Compound `CO[C@@H](CN(C)CC1CCOCC1)[C@@H](C)CN(C(=O)Nc1ccc(F)cc1)[C@@H](C)CO` has a viability index of 1.03 ± 0.079. For `CC(=O)N1[C@@H](CO)[C@@H](c2ccc(-c3ccc(C#N)cc3)cc2)C12CN(C(=O)C1CC1)C2`, the viability index was 1.09 ± 0.02. `COc1ccc2c3c([C@@H](CO)N(C[C@]33CCN(Cc4cncnc4)CC3)C(=O)CN(C)C)n(C)c2c1` gave a viability index of 0.999 ± 0.035. In the case of `CN1C(=O)c2cc(NC(=O)Cc3cccs3)ccc2OC[C@H]2O[C@H](CC(=O)NCC3CCCCC3)CC[C@@H]21`, the viability index is reported as 1.16 ± 0.12. `Cc1cccc(-c2ccc([C@@H]3[C@@H]4CNC[C@H]3N4)cc2)c1` gave a viability index of 1.01 ± 0.069. `CO[C@@H]1CC[C@@H]2CCN(C)C(=O)[C@H](C)N(C)C(=O)c3cccc(C#N)c3OC[C@H]1O2` was tested, and the viability index was 1.02 ± 0.014. `O=C(c1cnccn1)N1CC(=O)N2[C@H](CO)[C@H](c3ccc(C#CC4CC4)cc3)[C@@H]2C1` showed a viability index of 1.118 ± 0.01. In the case of `CCS(=O)(=O)Nc1ccc2c(c1)C(=O)N(C)[C@@H]1CC[C@H](CC(=O)NCc3ccc(OC)cc3)O[C@@H]1CO2`, the viability index is reported as 1.02 ± 0.067. With `COc1ccc(C#Cc2ccc3c(c2)[C@H]2[C@H](CCN2S(=O)(=O)c2ccccc2C)[C@H](CO)N3C)cc1` the viability index was 1.04 ± 0.042. Work on `COc1ccc(CN(C)C[C@H]2Oc3ccc(NC(=O)Nc4ccc5c(c4)OCO5)cc3CC(=O)N([C@@H](C)CO)C[C@H]2C)cc1` yielded a viability index of 0.94 ± 0.052. `C[C@@H]1CN([C@@H](C)CO)C(=O)c2c(c3ccccc3n2C)-c2ccccc2CO[C@H]1CN(C)Cc1cccc(C(F)(F)F)c1` gave a viability index of 0.932 ± 0.15. `O=C(C[C@H]1C[C@H]2c3cc(NC(=O)Nc4ccccc4)ccc3O[C@H]2[C@@H](CO)O1)NCc1ccccc1` showed a viability index of 1.1 ± 0.059. In the case of `O=C1CNC[C@H]2[C@@H](c3ccc(C#CC4CCCCC4)cc3)[C@@H](CO)N12`, the viability index is reported as 1.14 ± 0.039. For `CCC(=O)Nc1ccc2c(c1)OC[C@H](C)N(Cc1ccccc1)C[C@@H](C)[C@@H](OC)CN(C)C2=O`, the viability index was 1.02 ± 0.029. In the case of `CNC(=O)C[C@@H]1CC[C@H]2[C@H](COc3ccc(NS(=O)(=O)c4ccc(F)cc4)cc3C(=O)N2C)O1`, the viability index is reported as 1.02 ± 0.1. Work on `COc1ccc2c3c([C@@H](CO)N(Cc4cc(F)ccc4F)C[C@]33CN(C3)C(=O)C3CC3)n(C)c2c1` yielded a viability index of 0.941 ± 0.05. Work on `CC(C)COC(=O)N(C)C[C@@H]1OCc2ccccc2-c2ccccc2C(=O)N([C@H](C)CO)C[C@H]1C` yielded a viability index of 1.032 ± 0.0056. With `CN(C)C(=O)[C@H]1[C@H](CO)[C@H]2Cn3c(cccc3=O)[C@@H]1N2CC1CCOCC1` the viability index was 1.01 ± 0.058. Work on `COc1ccc2c3c([nH]c2c1)[C@H](CO)N(C[C@]31CN(Cc2ccccc2Cl)C1)C(C)=O` yielded a viability index of 0.979 ± 0.083. Compound `CN(C)Cc1cn(CC[C@@H]2CC[C@@H](NC(=O)Cc3cccnc3)[C@H](CO)O2)nn1` has a viability index of 0.937 ± 0.048. `O=C(C[C@@H]1C=C[C@@H](NC(=O)Nc2ccc3c(c2)OCO3)[C@H](CO)O1)NCCCN1CCOCC1` gave a viability index of 0.915 ± 0.059. Compound `C[C@@H]1CCCCO[C@H](CN(C)S(=O)(=O)c2ccc(Cl)cc2)[C@@H](C)CN([C@H](C)CO)C(=O)c2cc(NC(=O)Nc3ccc(C(F)(F)F)cc3)ccc2O1` has a viability index of 1.08 ± 0.17. Work on `CO[C@@H]1CN(C)C(=O)c2ccc(NC(=O)c3ccccc3F)cc2OC[C@H](C)N(C)C[C@@H]1C` yielded a viability index of 1.11 ± 0.022.
